Assay results from PubChem BioAssay AID1159614 (National Center for Advancing Translational Sciences (NCATS), 2016).
The campaign covered roughly 45,000 compounds. About 65 (0.1%) were called active. The call rests on the fitted dose curve; in most records, active means well fitted activation curve with a large enough effect; inconclusive means small, poorly fitted or top-dose-only effect; inactive means no such curve, though single readings can be large or run the other way. Some of the results follow.

target: Galactocerebrosidase (Homo sapiens) (UniProt P54803); assay: A Novel Cell-Based Assay to Identify Small Molecules for B -Galactocerebrosidase; conditions: 145M-Twi-hGALC-G270D cells (Twitcher mouse brain line with human GALC G270D), HMU-beta-Gal fluorescence, 48 h; series mostly up to 57.5 µM; activation: at the top concentration; further: nearly all actives have a fitted effect of over 65% in size; on activation: 0% is about no effect
Method in brief: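 Fluorogenic HMU-b-Gal hydrolysis (0.1 mM final, pH 5.2 citrate-phosphate with 1 mg/mL sodium taurocholate; carbonate stop buffer) measures mutant GALC activity after compound treatment of live 145M-Twi Twitcher brain cells stably carrying human GALC-G270D, with wild-type GALC line alongside; activation sought.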
Potency means the concentration at half of the fitted maximal effect.

UniProt P54803, sequence (P54803 whole entry, looked up): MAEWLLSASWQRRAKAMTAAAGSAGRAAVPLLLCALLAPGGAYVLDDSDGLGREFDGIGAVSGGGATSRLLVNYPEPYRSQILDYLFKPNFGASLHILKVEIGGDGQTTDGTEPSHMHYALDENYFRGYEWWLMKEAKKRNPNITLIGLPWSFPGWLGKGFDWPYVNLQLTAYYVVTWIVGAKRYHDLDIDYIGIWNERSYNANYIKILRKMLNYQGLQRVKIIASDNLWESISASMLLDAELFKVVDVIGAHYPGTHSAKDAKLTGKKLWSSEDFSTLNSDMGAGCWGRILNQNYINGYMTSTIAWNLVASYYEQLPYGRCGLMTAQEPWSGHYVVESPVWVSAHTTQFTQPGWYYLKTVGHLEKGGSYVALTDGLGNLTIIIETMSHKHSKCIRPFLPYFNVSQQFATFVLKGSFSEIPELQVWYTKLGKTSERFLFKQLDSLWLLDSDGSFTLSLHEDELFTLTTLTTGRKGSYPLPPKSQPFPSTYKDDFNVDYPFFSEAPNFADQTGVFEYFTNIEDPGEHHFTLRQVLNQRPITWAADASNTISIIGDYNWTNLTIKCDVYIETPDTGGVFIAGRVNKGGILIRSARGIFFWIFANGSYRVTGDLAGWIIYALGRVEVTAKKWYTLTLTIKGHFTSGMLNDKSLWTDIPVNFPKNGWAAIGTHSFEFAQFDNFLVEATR

Compound	activation	Potency
Cc1ccc(C)c(N2CCN(C(c3ccc(F)cc3)c3nnc(-c4ccccc4)o3)CC2)c1 (stereo not given)	inactive: -24.3%	
Cc1ccccc1CSc1cn(CC(=O)N2CCCC2)c2ccccc12	inactive: -5.75%	
CCN(Cc1ccccc1)C(=O)Cn1c(=O)oc2cc(S(=O)(=O)N3CCCCCC3)ccc21	inactive: -19.2%	
Cc1noc2ncnc(NCc3ccccc3Cl)c12	inactive: -36.2%	
CCOc1ccc(NC(=O)C(=O)NCCc2csc(-c3ccc(C)cc3)n2)cc1	inactive: -1.35%	
COc1ccc(NC(=O)c2sc3nc(C)c(C(=O)Nc4ccc(C)cc4C)c(-c4cccs4)c3c2N)cc1	inactive: -7.26%	
COc1ccc(OC)c(NC(=O)c2sc3nc4c(cc3c2N)CCCCCC4)c1	inactive: -16.6%	
CCC(=O)N1CCc2cc(S(=O)(=O)NCCC(=O)Nc3ccc(OC)c(OC)c3)ccc21	inactive: -11%	
CCOc1ccc(-c2cc(C(=O)N3CCN(c4ccc(C)cc4)C(C)C3)c3ccccc3n2)cc1 (stereo not given)	inactive: -9.39%	
Cc1cccc(N2CCN(c3ncnc4c3c(-c3ccccc3)cn4-c3ccccc3)CC2C)c1 (stereo not given)	inactive: 3.99%	
COc1cc(-c2nnn(CC(=O)NCc3ccccc3)n2)cc(OC)c1OC	inactive: -13%	
COc1ccc(NC(=O)CSc2nnc3c(C)cc4ccccc4n23)cc1	inactive: -11.4%	
Cc1cnc2c(c1SCC(=O)NCc1ccc(F)cc1)c(=O)n(C)c(=O)n2C	inactive: -4.36%	
CCCCNc1nc2c(c(=O)n(Cc3ccc(Cl)c(Cl)c3)c(=O)n2C)n1C	inactive: -14.3%	
CC(C)(C)c1ccc(C(=O)NC(Cc2c[nH]c3ccccc23)C(=O)OCC(=O)c2ccc(Cl)cc2)cc1 (stereo not given)	inactive: -17.4%	
Cc1ccc(CNC(=O)CSc2nc3n[nH]c(C)c3c(=N)n2-c2cccc(C)c2)cc1	inactive: -24.1%	
COc1ccc(-c2noc(-c3ccc(N4CCC(C)CC4)c([N+](=O)[O-])c3)n2)cc1OC	inactive: 2.88%	
COc1ccc(N(CC(=O)N2CCN(c3ccc(F)cc3)CC2)S(=O)(=O)c2c(C)n[nH]c2C)cc1	inactive: -6.88%	
CCOc1ccc(NC(=O)Cn2cc(S(=O)(=O)N3CCN(c4ccccc4F)CC3)c3ccccc3c2=O)cc1	inactive: -11.9%	
O=C(NCCc1csc2nc(-c3cccc(F)c3)nn12)c1ccc(Br)o1	inactive: -6.62%	

Compound	activation	Potency
COc1ccc(NC(=O)c2oc3ccc(S(=O)(=O)N(C)C4CCCCC4)cc3c2C)cc1	inactive: -11.2%	
CCOC(=O)c1scc(-c2ccccc2)c1S(=O)(=O)N1CCN(c2ccccc2OC)CC1	inactive: -11.5%	
Cc1ccc(CNC(=O)c2cccc(-n3cnc4cccnc43)c2)cc1	inactive: -2.7%	
OC(C#CCN1CCCC1)(c1ccccc1)c1ccccc1	inactive: -16%	
CCc1ccc(NC(=O)CCNS(=O)(=O)c2ccc3c(c2)CCCC(=O)N3)cc1	inactive: 1.56%	
COc1cccc(C(=O)Nc2c3c(nn2-c2ccc(Cl)cc2)CS(=O)(=O)C3)c1	inactive: -21.9%	
CCCN(C(=O)c1cc2c(s1)-c1c(C)cccc1OC2)c1ccc(OCC)cc1	inactive: -2.99%	
CC(C)c1ccc(Nc2nc3c(S(=O)(=O)c4ccc(Br)cc4)nnn3c3ccsc23)cc1	inactive: -4.2%	
COc1ccc(-c2nn(-c3cccc([N+](=O)[O-])c3)c3c2cnc2cc4c(cc23)OCO4)cc1	inactive: -10.6%	
Cc1cc2nc(-c3cccc(NC(=O)CSc4ccc(Cl)cc4)c3)oc2cc1C	inactive: -12.6%	
COc1cccc(NS(=O)(=O)c2ccc3c(c2)CCCN3C(=O)C2CCC2)c1	inactive: 5.46%	
CCOC(=O)c1cc(-c2ccc(C)cc2)n(CC(=O)NC2CCCCCC2)c1C	inactive: 1.46%	
CCSc1nnnn1-c1cccc(C(=O)O)c1	inactive: -8.98%	
C=CCC(CC=C)(CNC(=O)C(=O)Nc1ccc(C(=O)OCC)cc1)c1ccccc1	inactive: 5.75%	
COC(=O)c1ccccc1NC(=O)c1cc2c(-c3ccc(OC)c(OC)c3)nn(C)c2s1	inactive: -14.1%	
O=C(/C=C/c1cn(CC(O)CN2CCCCCC2)c2ccccc12)c1ccc(Br)cc1 (stereo not given)	inactive: 21.1%	
Cc1ccc(-c2nc3ccccn3c2Nc2ccc3c(c2)OCO3)o1	inactive: -5.82%	
Cc1ccc(NC(=O)C(Cc2ccccc2)n2cccc2)cc1C (stereo not given)	inactive: -3.04%	
CCC(=O)Nc1sc2c(c1C(=O)Nc1cccc(C)c1)CCCC2	inactive: -4.27%	
Cc1cccc(C(=O)Nc2ccc(OCc3cc(=O)n4c5c(sc4n3)CCCC5)cc2)c1	inactive: -3.97%	

Compound	activation	Potency
Cc1ccc(NC(=O)Cn2cc(S(=O)(=O)c3ccccc3)c(=O)c3cc4c(cc32)OCO4)cc1	inactive: -19.2%	
COc1ccccc1Nc1nn2c(=O)c3ccc(C(=O)NC(C)c4ccccc4)cc3nc2s1 (stereo not given)	inactive: -12.8%	
Cc1cccc(-c2c3c(=O)n(C)c(=O)n(C)c3c3cnc4ccccc4n23)c1	inactive: -14.6%	
Cc1c(NC(=O)Nc2ccc(C#N)cc2)c(=O)n(-c2ccccc2)n1C	inactive: -21%	
COc1ccc(C2c3[nH]c4ccc(OC)cc4c3CCN2C(=O)Nc2ccccc2)cc1 (stereo not given)	inactive: -15.3%	
Cc1cc(C)c(NC(=O)Cn2nnc(-c3nc(-c4ccccc4)no3)c2N)c(C)c1	inactive: -9.64%	
CCCOC(=O)c1ccc(O)cc1	inactive: -18% [at 114 µM]	
Cc1cc(C)c2c(n1)SCCN2C(=O)Nc1ccc(C(=O)Nc2ccc(C(C)C)cc2)cc1	inactive: -5.6%	
CCN(CCN(C)C)C(=O)C1CCN(S(=O)(=O)c2c(C)noc2/C=C/c2ccccc2F)CC1	inactive: 2.39%	
Cc1ccc(-c2cc(C(F)(F)F)nn2-c2ccc(S(N)(=O)=O)cc2)cc1	inactive: -13.4%	
CSc1ncc(C(=O)Nc2cc(Cl)ccc2C)c(-c2ccccc2)n1	inactive: -3.56%	
COc1ccccc1NC(=O)C1CCN(c2cnccn2)CC1	inactive: -8.03%	
CC(=O)N1CCCc2cc(S(=O)(=O)N3CCN(c4cccc(C(F)(F)F)c4)CC3)ccc21	inactive: -16%	
Cc1ccc(C)c(NC(=O)C(c2ccccc2)N2Cc3ccccc3C2=O)c1 (stereo not given)	inactive: -14.5%	
COC(=O)c1ccccc1NC(=O)Cn1c(=O)n(CCCC(=O)NCc2ccccc2OC)c(=O)c2ccccc21	inactive: -1.16%	
O=C(CCC1N=C2c3ccccc3N=C(SCc3ccc(F)cc3)N2C1=O)NC1CCCCC1 (stereo not given)	inactive: -8.17%	
COc1cc2cc(CNc3ccccc3)c(=O)n(CC(=O)Nc3cc(C)cc(C)c3)c2cc1OC		active: 39.8 µM
Cc1cc(C)cc(-n2ccn(CC(=O)Nc3ccccc3F)c(=O)c2=O)c1	inactive: -8.44%	
CC(=O)c1ccc(NC(=O)c2nc3nc(C)cc(C(F)F)n3n2)cc1	inactive: -9.45%	
CCOc1ccc(-n2nc(CO)c(C(=O)NCc3cccc(OC)c3)n2)cc1	inactive: -11.7%	
